Our source for the z-score values is PubChem BioAssay AID488969 (Vanderbilt High Throughput Screening Facility, 2010).

The full ranking holds about 110,000 compounds; the median of “z-score” is about -0.1, and the highest 2% start at about 2. Some of the results follow.

This test deals with Metabotropic glutamate receptor 8 (Rattus norvegicus) (UniProt P70579). As to the kind of experiment: rat mGluR8 modulators via GIRK flux, primary screen, cell-based, thallium flux, HTS (AID 488969). The following applies: HEK293 rat mGluR8, GIRK (G protein-gated inwardly rectifying potassium channel) thallium flux, FluoZin2; at 10 µM; stronger effect = higher value; submaximal glutamate (EC20) added with thallium.
Sequence of UniProt P70579 (P70579 whole entry, looked up): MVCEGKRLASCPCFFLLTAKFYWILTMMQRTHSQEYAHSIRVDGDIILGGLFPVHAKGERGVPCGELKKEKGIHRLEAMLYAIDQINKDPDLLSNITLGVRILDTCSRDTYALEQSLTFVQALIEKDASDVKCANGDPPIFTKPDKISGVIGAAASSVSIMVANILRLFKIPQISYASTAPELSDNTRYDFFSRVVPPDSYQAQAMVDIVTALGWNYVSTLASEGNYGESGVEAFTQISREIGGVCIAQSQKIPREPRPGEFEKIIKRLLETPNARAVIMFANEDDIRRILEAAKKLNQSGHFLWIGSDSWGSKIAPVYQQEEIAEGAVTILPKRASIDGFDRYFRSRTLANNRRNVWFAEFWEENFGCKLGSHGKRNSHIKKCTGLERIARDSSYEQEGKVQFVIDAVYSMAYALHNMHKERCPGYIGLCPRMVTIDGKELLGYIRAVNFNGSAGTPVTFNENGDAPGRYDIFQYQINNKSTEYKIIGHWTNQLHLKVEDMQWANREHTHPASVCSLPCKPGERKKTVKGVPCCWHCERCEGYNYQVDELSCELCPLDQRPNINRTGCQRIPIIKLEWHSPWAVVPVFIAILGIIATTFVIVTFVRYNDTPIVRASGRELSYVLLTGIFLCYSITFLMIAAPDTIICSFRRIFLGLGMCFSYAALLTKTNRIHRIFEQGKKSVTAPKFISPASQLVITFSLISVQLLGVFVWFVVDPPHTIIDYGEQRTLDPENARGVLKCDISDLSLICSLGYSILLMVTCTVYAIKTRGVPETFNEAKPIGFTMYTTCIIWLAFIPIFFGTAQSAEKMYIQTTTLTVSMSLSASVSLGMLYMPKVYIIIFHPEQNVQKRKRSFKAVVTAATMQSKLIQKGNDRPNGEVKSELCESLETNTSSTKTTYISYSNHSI
In turn, `COC(=O)COn1c(-n2nc(C)cc2C)nc2ccccc2c1=O` showed a z-score of 0.132.

Take `CN(C)CCCNc1c(C(=O)O)cnc2c1cnn2C`: the z-score is 1.05. The figure for `Cc1ccc2nc(SCn3nnc4ccccc4c3=O)[nH]c2c1` is -0.387; for `CN(C)/C=C1/C(=O)N(c2ccc([N+](=O)[O-])cc2)N=C1c1ccccc1` it is -0.0763. On to `NC(CC(=O)O)c1ccc(F)cc1` (centres undefined), for which the z-score was -0.194.

`O=C(CN1c2cccc3cccc(c23)S1(=O)=O)Nc1cccc(S(=O)(=O)N2CCOCC2)c1`: the z-score was -0.62. The same measure for `Cc1nc(NC(=O)C2CCCCC2)sc1C`: -0.106; for `CCOC(=O)c1c(NC(=O)c2ccc(N3CCOCC3)c([N+](=O)[O-])c2)sc(C)c1C`: -0.155; for `CC(C)(C)c1cc(C(=O)N/N=C/c2ccco2)n[nH]1`: 0.799. With `CC(C)(C)c1cc(NC(=O)CCSc2nnc3ccccn23)cc(C(C)(C)C)c1`, the z-score stood at 0.547. Compound `COc1ccc(CCn2c(C)cc(C(=O)CSc3nc(N)cc(=O)[nH]3)c2C)cc1` returned a z-score of 0.024.

`COc1c(S(=O)(=O)N2CCN(c3ccc(F)cc3)CC2)ccc(Cl)c1Cl` had a z-score of -0.0316. Consider `C/C(=C\c1ccccc1)C(=O)N1CCN(c2cccc(C(F)(F)F)c2)CC1`, for which the z-score was -0.915. Regarding `CC(=O)NC1C(=O)N=C(SCC(=O)NCc2ccccc2)NC1=O` (centres undefined), the z-score was -0.0811. The same measure for `CCN(C(=O)Cn1c(=O)n(Cc2ccccc2)c(=O)c2ccccc21)c1cccc(C)c1`: 0.022; for `COC(=O)C(CC(C)C)NC(=O)c1ccc(F)cc1` (centres undefined): -0.19. The same measure for `N#CC1=C2SCN(c3ccccc3)CN2C(=O)CC1c1ccccc1Cl` (centres undefined): -0.488. On to `CCCN(CC1CC1)C(=O)Nc1ccccc1C`, for which the z-score is -0.0726. In the case of `COc1ccc(C2(C(=O)NCC3CCCO3)CCOCC2)cc1` (centres undefined), the z-score stood at 0.0307. `CCc1nc(N2CCC3(CC2)OCCO3)c2nnn(Cc3ccccc3Cl)c2n1` registered a z-score of 0.168. The figure for `CC(C)COC(=S)Nc1ccccc1` is 1.57; for `O=C(COC(=O)c1ccccc1)NCc1ccco1` it is -0.212; for `COc1ccc(C(=O)NCC(=O)NCC(c2ccco2)N(C)C)cc1OC` (centres undefined) it is -0.458. The figure for `COc1ccccc1N(CC(O)Cn1c(C)nc2ccccc21)S(=O)(=O)c1ccccc1` (centres undefined) is 0.528; for `CCOC(=O)c1c(C)c(-c2ccccc2)n(CC(=O)N2CCN(C)CC2)c1C` it is -0.787. `CC(C)COC(=O)c1cc(-c2ccc(/C=N/n3cnnc3)o2)ccc1Cl` registered a z-score of -1.65. The figure for `Fc1ccc(-c2csc(N3CCC(c4ccccc4)C3)n2)cc1` (centres undefined) is 0.0157.

On to `Cc1ccc(NC(=O)CC2S/C(=N/c3nccs3)N(C)C2=O)c(C)c1` (centres undefined), for which the z-score is -0.0538. The figure for `CCN(CC)S(=O)(=O)c1ccc(-c2nnc(SC)o2)cc1` is -0.478; for `CCCCOc1ccc(CC(=O)NCC(=O)O)cc1` it is -0.116. `CCOC(=O)CNC(=O)c1c2c(nc3ccccc13)CCCC2` registered a z-score of 1. The compound `Cc1cc(C)n(-c2nc(-c3ccc(Cl)cc3)cs2)n1` yielded a z-score of 0.189. The figure for `COc1ccc(OCC(=O)Nc2cc(C)c(Cl)cc2OC)c([N+](=O)[O-])c1` is 0.0573; for `c1csc(-c2nn3c(Cn4nnc5ccccc54)nnc3s2)c1` it is 0.0104; for `N#Cc1nc(-c2cccc3ccccc23)oc1N1CCCCC1` it is 0.333. The figure for `Cc1ccccc1-c1nc(-c2ccc(NC(=O)c3cccs3)cc2)no1` is -0.227; for `O=C(Nc1ccccc1)N1CCCC1` it is 0.00511; for `CC1=NN(C(=O)COc2ccccc2C)C(O)(c2ccc(Cl)cc2)C1` (centres undefined) it is -0.867. For the compound `COc1ccccc1NCc1nnc(SCC(=O)N/N=C/c2ccco2)n1-c1ccc(Cl)cc1Cl`, the z-score was -0.0928.

In the case of `CN(C)c1ccc(/C=N/NC(=O)C(O)(c2ccccc2)c2ccccc2)o1`, the z-score is -0.0525. The same measure for `O=C(/C=C/c1ccco1)Nc1ccc(C(=O)N2CCOCC2)cc1`: -0.294; for `CCOC(=O)C(C(=O)OCC)C(C)(C)/C(C)=N\Nc1ccc([N+](=O)[O-])cc1[N+](=O)[O-]`: -0.237; for `S=C(N/N=C/c1ccccc1)N1CCOCC1`: 2.65.

With `CCCNS(=O)(=O)c1ccc(NC(=O)c2ccccn2)cc1`, the z-score is -0.761. The same measure for `O=C(O)CCNc1nc(-c2ccccc2)nc2ccccc12`: -0.0115; for `Cc1ccc(-c2cc(C(=O)N3N=C(C(F)F)CC3(O)C(F)F)c3ccccc3n2)cc1C` (centres undefined): 0.0179. Regarding `COc1ccccc1C(=O)NC(CCSC)C(=O)OCC(=O)c1ccc[nH]1` (centres undefined), the z-score was -0.348. Take `CCOc1ccc(N2CC(C(=O)Nc3ccc(S(=O)(=O)N4CCOCC4)cc3)CC2=O)cc1` (centres undefined): the z-score is -0.198. As for `COc1cccc(CNC(=O)CN(c2cc(C)cc(C)c2)S(=O)(=O)c2c(C)noc2C)c1`, the z-score stood at 2.13. The figure for `COC(=O)c1[nH]c2cccc(OC)c2c1NC(=O)CCN1CCC(C)CC1` is 0.279; for `COc1ccc(COCC(O)CN2CCOCC2)cc1OC` (centres undefined) it is 1.61. The figure for `CCCn1c(CCNC(=O)c2cccs2)nc2ccccc21` is -0.594; for `CCc1ccc2oc(C(=O)NCc3ccncc3)c(C)c2c1` it is 0.126. `Clc1ccccc1CSc1ncccn1` had a z-score of -0.903.

Take `O=C1CCCc2nc(N3CCCCC3)sc21`: the z-score is -0.041. The figure for `O=C(O)c1ccccc1C(=O)N1CC=C(c2ccccc2)CC1` is 0.0308; for `O=C(c1ccc(CNc2c(NC3CCCCC3)c(=O)c2=O)cc1)N1CCc2ccccc21` it is -0.164; for `Cc1ccc(N/C=C(/C#N)c2ccsc2)cc1` it is -0.431.

Compound `Cc1noc(COc2ccc(OCc3nc(C)no3)cc2)n1` gave a z-score of -0.0271. The same measure for `COc1ccc2c(c1)[nH]c1c(=O)n(Cc3ccccn3)cnc12`: -0.21. As for `O=C(Cc1cccs1)Nc1ccccc1C(=O)O`, the z-score was -0.535. As for `CSC(=NC#N)N1CCN(c2cccc(Cl)c2)CC1`, the z-score worked out at 0.268. The same measure for `COc1ccc(OCC(=O)N/N=C/c2ccsc2)cc1`: 0.604; for `CCCCC(=O)NC(=S)Nc1cccc(NC(=O)CC)c1`: -0.0414. In turn, `Cc1occc1-c1nc(-c2ccccn2)no1` registered a z-score of 1.37. The figure for `N#CC1=C2SCCN2C(=O)C(C#N)C12CCCCC2` (centres undefined) is -0.399; for `Cc1ccccc1CNc1nc(N)n(-c2ccccc2)n1` it is -0.307.

As for `COc1cc(S(=O)(=O)Nc2ccccc2C)ccc1Cl`, the z-score was -0.268. With `c1ccc2[nH]c(CN3CCCCCC3)nc2c1`, the z-score is -0.169. The same measure for `CCOc1ccc(CCNC(=O)C2CCN(C(=O)N(C)C)CC2)cc1OCC`: 0.862; for `CSc1ccc(Cc2ccc(Cl)cc2Cl)nn1`: -0.154; for `COc1ccc(CCNC(=O)c2ccncc2)cc1OC`: -0.0662.

With `O=C(Nc1ccccc1)C1=C(O)CC(c2ccco2)CC1=Nc1ccccc1` (centres undefined), the z-score is -0.41. `Cc1ccc(OCC2Cn3c(nc4c3c(=O)n(C)c(=O)n4C)O2)cc1` (centres undefined): the z-score is 0.826.
